Assay results from the supplement of paper PMC11417369.
This is one part of the list.

System: PfHDP1 homeodomain (GST-tagged)
Assay: gcPBM binding intensity (ln(normalized median fluorescence intensity)); higher = stronger DNA binding
How it was run: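 Using an Agilent 4 × 180k array, primer-extended double-stranded 36-bp intergenic genomic probes and negative controls were exposed for 1 h to GST-fused P. falciparum DNA-binding domains expressed in E. coli. Binding was carried out in 1× PBS with 1% milk, 0.2 mg/ml BSA, 0.5% salmon testes DNA and 0.03% Triton X-100, and protein was detected with Alexa488 anti-GST antibody and a 488 nm scan. Binding intensity is the highest Masliner-normalised natural-log median intensity across replicate spots of either probe orientation.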

| Sequence | gcPBM binding intensity (ln) |
| --- | --- |
| ATCGCATAAAGACAAGAACACACATATATATTGTAG [CACACA_site9229] | 6.63 |
| AATAAATATAGGAATACACACAATATAAATGTATTG [CACACA_site3366] | 6.35 |
| CACTAAAATGGACACACACACACACCGATATATATA [CACACA_site6139] | 7 |
| TATTTTTTTGTGTTTGGTACACACGTTATAAAAAAT [XGTACX_site2655] | 6.39 |
| CTAGCAAATACATACACACACACACCCATACATATA [CACACA_site3496] | 7 |
| ACAACAATATGGAATTGTACATATATATATAAATAT [XGTACX_site3139] | 6.61 |
| GAACAAATAAAAAGGAGTACAATCAAATCTACGTAT [XGTACX_site343] | 6.33 |
| TACACAAAACATAAAAGTACATAATAATAAAGTTAA [XGTACX_site8872] | 6.56 |
| TAAATAAATACATACACACACATACATATATATATA [CACACA_site3129] | 8.97 |
| TTATTGTTTATTAAATGTACAGATTCGTTAAAATTA [XGTACX_site3041] | 6.35 |
| AGTATACATTCATTTTGTACTCAATGATTTGATAAC [XGTACX_site6787] | 6.31 |
| ATAATTATATTCCATACACACATATATTTAAAGGTT [CACACA_site2957] | 6.85 |
| AGGAATAAATAATTAACACACACAATCTTTTTTTTT [CACACA_site9027] | 6.56 |
| TAATAAGTATAAAATAGTACATATAAATATATCAAA [XGTACX_site8834] | 6.06 |
| AAATAAAAAAACTATTGTACTGAATACAAATTAAAT [XGTACX_site3793] | 6.35 |
| ATAATATTAGTAAACACACTCAAATTATATATGATA [CACACA_site5721] | 6.28 |
| ACTTTTTCACATAAAAATGATCCGATTAGTAATAAT [XGTACX_negctrl_site248] | 6.37 |
| CATATATAAAATATATGTACTTATAGAACATAATTT [XGTACX_site1936] | 6.09 |
| CATTTTTTAAGCATCACACACGAAAGAACAAAGTGG [CACACA_site4755] | 7.03 |
| TGGAAAATTATAAGGTGTACATATAAGCTATTATAT [XGTACX_site118] | 6.41 |
| TTTTTTTTTTTAAGGTGTACAATAAAAATTTATGCA [XGTACX_site8860] | 6.14 |
| ATGTTTTCAAAAATAAAACATATAAATAAATAAATA [TGCATGCA_negctrl_site226] | 6.35 |

| Sequence | gcPBM binding intensity (ln) |
| --- | --- |
| TTACGAATGAATATATGTACATATATATATATATAT [XGTACX_site3790] | 9.45 |
| AATGTACACGCACCCACACACAAACAAATATAAATA [CACACA_site7319] | 7.09 |
| TTGCTTTTCATTTATTGTACATACCCAGTAGGATAA [XGTACX_site3939] | 6.68 |
| GACATAGTATTAAGTTGTACATATATAAAAATAAAT [XGTACX_site1583] | 6.47 |
| TTATAATACCTACAAAGTACAAACTTAAATATGAAC [XGTACX_site5684] | 6.17 |
| CAACAACAAATGAGAAGTACATAAATATTAACAATA [XGTACX_site4625] | 6.5 |
| AAGCTTAAAAATGGGGGTACGTCATAGGGATTCAAC [XGTACX_site8080] | 6.9 |
| TTTGACACAATATTTTGTACGAAACTATTAATTCAA [XGTACX_site4853] | 5.96 |
| AATATATAAACATATACACACAAAAACATATATATA [CACACA_site4855] | 6.94 |
| TAAAAAAAAACATGATGTACATAAAATTTTTTACTT [XGTACX_site7056] | 6.33 |
| AAAATATATAAACGCACATATATTTATGTATATATA [CACACA_negctrl_site163] | 7.55 |
| AAAAGGGAAAAAATTAAAATTATATATATATATATG [CACACA_negctrl_site137] | 6.41 |
| TACATATATTTAAGGAGTACAAAAAATAATGATAAA [XGTACX_site3539] | 7.13 |
| TTATTAGAGATGTTAAGATATAGGGATAATTTCGAT [XGTACX_negctrl_site395] | 6.49 |
| ATATGTTTTAAGTGTACACATATAATGTATTTTGTT [CACACA_site4929] | 7.61 |
| AACCTATCTATAGGAACAATATATATATATATAATT [CACACA_negctrl_site1707] | 6.48 |
| TATTATGCTATTTAATGTACGGAATTTATATATATA [XGTACX_site564] | 6.81 |
| TTGCTCATTGAAATTATACACACCAAATATATAAAT [CACACA_site2482] | 6.79 |
| TATACATAGAAACACACACACATAAATAAATATATA [CACACA_site1342] | 6.79 |
| TGGTATATAAAACACACACACATATGTATATATATA [CACACA_site926] | 7.66 |
| CCTTAAATAATATATTCACACAATATAACAAAAATT [CACACA_site4892] | 6.41 |
| CATACACAGAAACACACACACATATATACATATATA [CACACA_site1094] | 6.9 |
